Several values for one entry are separate records, joined by “and”; a condition that tells them apart may be missing. Equal values may be shown once. In all, about 420,000 compounds went through this assay and about 50,000 (12%) were called active. This list was built around the results that the source calls inconclusive (neither active nor inactive); the mix of calls is not that of the screen. The call rests on the fitted dose curve; in most records, active means well fitted inhibition curve with a large enough effect; inconclusive means small, poorly fitted or top-dose-only effect; inactive means flat fitted curve, though single readings scatter. Where the call is inconclusive, the potency comes from a doubtful curve fit.
Test: qHTS for Inhibitors of human tyrosyl-DNA phosphodiesterase 1 (TDP1): qHTS in cells in presence of CPT; further: nearly all actives have a fitted effect of over 55% in size
Details: chicken DT40 Tdp1-/-;hTDP1 cells + 20 nM CPT, ATP luminescence, 48 h; activity change, negative = growth inhibition: at 46.2 µM (top of the series) unless noted
In short: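 Chicken DT40 Tdp1-/- cells stably complemented with human TDP1 were seeded at 400 cells/well in medium containing 20 nM camptothecin, exposed to pin-transferred compounds, and grown at 37 °C for at least 48 hr. Viability was read as ATP luminescence.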
On the % scale 0 is the no-effect control and ±100 the full control effect; potency means the concentration at half of the fitted maximal effect; tags describe the fitted curve by direction and shape.

Question: For `Cc1nn(-c2ccccc2)c(C)c1/C=N/NC(=O)c1cc(C(C)(C)C)[nH]n1`, which Potency is on record?
Answer: inconclusive: 16.4 µM [inhibitor, single point]

Question: For `CCOc1ccccc1NC(=O)CN(C)S(=O)(=O)c1ccc(C(=O)N2CCOCC2)s1`, which Potency is on record?
Answer: inconclusive: 20.6 µM [inhibitor, partial curve]

Question: Which Potency does the source give for `COc1ccc(CNc2ncnc3ccc(-c4cccc(NS(C)(=O)=O)c4)cc23)c(OC)c1` here?
Answer: active: 18.4 µM

Question: Which Potency does the source give for `COc1ccc(CC(=O)Nc2nc(-c3cccc([N+](=O)[O-])c3)cs2)cc1` here?
Answer: inconclusive: 1.84 µM [inhibitor, partial curve, poor fit]

Question: For `COc1cc(CNC(=O)Nc2nc(C(N)c3ccccc3)cs2)cc(OC)c1OC` (centres undefined), which “activity change, negative = growth inhibition” value is on record?
Answer: inactive: 4.02%

Question: Which Potency does the source give for `COc1ccc(-c2ccc3c(c2)C2CC3CCN2C(=O)C(C)(C)C)cc1` (centres undefined) here?
Answer: inconclusive: 20.6 µM [inhibitor, single point]

Question: For `O=C(CSC1CN(C(c2ccccc2)c2ccccc2)C1)N/N=C/c1ccccc1`, which Potency is on record?
Answer: active: 16.4 µM

Question: Which Potency does the source give for `CCn1c2ccccc2c2nnc(SCC(=O)Nc3ccc4c(c3)OCO4)nc21` here?
Answer: inconclusive: 29.1 µM [inhibitor, partial curve]

Question: With `Ic1ccc(/C=C2\C=Cc3ccccc32)cc1` as the molecule, how does the Potency read?
Answer: inconclusive: 25.1 µM [inhibitor, single point]

Question: For `CCOC(=O)C1=C(CS(=O)(=O)c2ccc(F)c(C)c2)NC(=O)NC1c1ccccc1OC` (centres undefined), which Potency is on record?
Answer: active: 29.1 µM

Question: For `CCOc1ccc(N(CC(=O)N/N=C/c2cccnc2)S(C)(=O)=O)cc1`, which “activity change, negative = growth inhibition” value is on record?
Answer: inactive: -1.27%

Question: Which Potency does the source give for `Cc1cc(C)c(C#N)c(=N)o1` here?
Answer: active: 20.6 µM

Question: Which “activity change, negative = growth inhibition” value does the source give for `CCCc1nnc(NC(=O)c2nc(SCC)ncc2Cl)s1` here?
Answer: inactive: -29.4%

Question: With `CCn1cc([N+](=O)[O-])c(C(=O)N2N=C(c3cccc4ccccc34)CC2c2ccccc2O)n1` (centres undefined) as the molecule, how does the Potency read?
Answer: inconclusive: 35.5 µM [inhibitor, single point]

Question: Which Potency does the source give for `Cc1cccc(NC(=O)CCn2cnc3ccccc3c2=O)c1` here?
Answer: inconclusive: 29.1 µM [inhibitor, single point]

Question: With `COc1ccc(NC(=O)CN(C)C(=O)c2cc(-c3ccc(OC)cc3)nc3ccccc23)cc1` as the molecule, how does the Potency read?
Answer: inconclusive: 29.1 µM [inhibitor, single point]

Question: Which Potency does the source give for `Clc1cccc(CSc2nnc(-c3c[nH]c4ccccc34)o2)c1` here?
Answer: inconclusive: 25.9 µM [inhibitor, single point]

Question: With `CC(=O)Nc1ccc(-c2ccnc3c2CC(C)(C(=O)NCC2CCOCC2)O3)cc1` (centres undefined) as the molecule, how does the Potency read?
Answer: inconclusive: 29.1 µM [inhibitor, single point]

Question: With `CCOc1ccc(-n2nc3ccc(NC(=O)c4ccc(OC)c(Cl)c4)cc3n2)cc1` as the molecule, how does the “activity change, negative = growth inhibition” value read?
Answer: inactive: -28.6%

Question: For `O=C(CC1N=C2c3ccccc3N=C(SCc3ccccc3Cl)N2C1=O)NCCc1ccccc1` (centres undefined), which Potency is on record?
Answer: inconclusive: 29.1 µM [inhibitor, single point]

Question: Which Potency does the source give for `COc1ccccc1C(=O)N/C(N)=N/c1nc2ccccc2o1` here?
Answer: inconclusive: 29.1 µM [inhibitor, single point]

Question: For `CCOC(=O)c1c(C2COc3ccccc3O2)csc1NC(=O)c1ccco1` (centres undefined), which Potency is on record?
Answer: active: 14.1 µM

Question: Which Potency does the source give for `CCCCn1c(=O)n(-c2cc(OC)ccc2OC)c(=O)c2c3c(sc21)CN(C(C)=O)CC3` here?
Answer: inconclusive: 29.1 µM [inhibitor, single point]

Question: With `Cc1c(C(=O)N(CCO)Cc2ccccc2)oc2c(F)cccc12` as the molecule, how does the Potency read?
Answer: inconclusive: 13 µM [inhibitor, partial curve]

Question: With `CSCCC(NC(=O)c1ccccc1C)C(=O)O` (centres undefined) as the molecule, how does the “activity change, negative = growth inhibition” value read?
Answer: inactive: 8.88%

Question: For `Cc1ccc(NS(=O)(=O)c2c(C)[nH]c(C)c2C(=O)N2CCCCC2)c(Br)c1`, which Potency is on record?
Answer: inconclusive: 29.1 µM [inhibitor, single point]

Question: Which “activity change, negative = growth inhibition” value does the source give for `CCCCC(=O)Nc1nnc(SCC(=O)NC2CCCC2)s1` here?
Answer: inactive: -4.36%

Question: Which Potency does the source give for `O=S(=O)(c1ccccc1)N1N=C(c2ccccc2)CC1c1ccccc1` (centres undefined) here?
Answer: inconclusive: 29.1 µM [inhibitor, single point]

Question: Which Potency does the source give for `Cc1ccc(C2Nc3ccc4ccccc4c3C3=C2C(=O)CC(C)(C)C3)o1` (centres undefined) here?
Answer: inconclusive: 29.1 µM [inhibitor, single point]

Question: Which Potency does the source give for `Cc1ccccc1OCC(O)CN1CCN(c2ccc(Cl)cc2)CC1` (centres undefined) here?
Answer: inconclusive: 29.1 µM [inhibitor, single point]

Question: Which Potency does the source give for `COCCc1ccc(OC2(C)CCN(Cc3cccc(OCOC)c3)C2)cc1` (centres undefined) here?
Answer: inconclusive: 16.4 µM [inhibitor, partial curve]

Question: For `Cc1oc(-c2ccccc2Cl)nc1CS(=O)(=O)CC(=O)NCc1ccc(F)cc1`, which Potency is on record?
Answer: inconclusive: 29.1 µM [inhibitor, single point]

Question: For `CCC(C(=O)NCc1ccccc1OC)n1nc(C)n2c(cc3occc32)c1=O` (centres undefined), which Potency is on record?
Answer: inactive and inconclusive: 16.4 µM [inhibitor, single point]

Question: With `O=C(c1cc2ccccc2[nH]1)c1cc2cc(O)ccc2[nH]1` as the molecule, how does the Potency read?
Answer: inconclusive: 22.4 µM [inhibitor, single point]

Question: For `CCCc1c(-c2cccc(Cl)c2)ncn1CCc1ccccc1OC`, which Potency is on record?
Answer: inconclusive: 23.1 µM [inhibitor, single point]

Question: For `COc1ccc(C2=CCCCCC2)c(OC)c1OC`, which Potency is on record?
Answer: inconclusive: 25.9 µM [inhibitor, single point]

Question: Which Potency does the source give for `CCN(c1ccc(OC)cc1)S(=O)(=O)N1CCCC(C(=O)NCc2ccc(OC(C)C)cc2)C1` (centres undefined) here?
Answer: active: 20.6 µM

Question: Which “activity change, negative = growth inhibition” value does the source give for `Cc1ccc(CNC(=O)C2CC(c3ccc([N+](=O)[O-])cc3)=NO2)cc1` (centres undefined) here?
Answer: inactive: 3.1%

Question: For `COc1nc(NC(C)(C)C)nc(Oc2ccc(=O)n(-c3ccccc3)n2)n1`, which “activity change, negative = growth inhibition” value is on record?
Answer: inactive: -20.2%

Question: With `CCOc1ccc(NC(=O)CCSc2nc3c(c(CC)c2C#N)C(=O)CC(C)(C)C3)cc1` as the molecule, how does the Potency read?
Answer: inconclusive: 29.1 µM [inhibitor, single point]

Question: With `CCOC(=O)CC1(c2ccc(OC)c(OC)c2)C(=O)c2ccccc2C1=O` as the molecule, how does the “activity change, negative = growth inhibition” value read?
Answer: inactive: 12.2%

Question: For `Cc1nnc(SCC(=O)Nc2cccc(Cl)c2)n1CC1CCCO1` (centres undefined), which “activity change, negative = growth inhibition” value is on record?
Answer: inactive: -0.0752%

Question: With `Cc1cc(C)c2c(N)c(C(=O)Nc3nccs3)sc2n1` as the molecule, how does the “activity change, negative = growth inhibition” value read?
Answer: inactive: -29.9%

Question: Which Potency does the source give for `CCOC(=O)c1cccc(NC(=O)C2CCCN(S(=O)(=O)c3c(C)n[nH]c3C)C2)c1` (centres undefined) here?
Answer: inconclusive: 16.4 µM [inhibitor, single point]

Question: Which “activity change, negative = growth inhibition” value does the source give for `O=c1[nH]c(=O)c2[nH]c(=S)[nH]c2[nH]1` here?
Answer: inactive: -25.4%

Question: With `CCCOc1ccc(/C=C/C(=O)NCc2ccccc2)cc1` as the molecule, how does the Potency read?
Answer: inconclusive: 29.1 µM [inhibitor, single point]

Question: For `O=C(CN1CCCN(Cc2ccccc2F)S1(=O)=O)Nc1ccc(F)c(Cl)c1`, which Potency is on record?
Answer: inconclusive: 16.4 µM [inhibitor, single point]

Question: For `CC(C)NC(=O)N1[C@H](c2cccs2)[C@@H](C)C(=O)[C@@H](C)[C@@H]1c1cccs1`, which Potency is on record?
Answer: active: 14.6 µM

Question: Which Potency does the source give for `CCOC(=O)C1=C(C)N(c2ccccc2)C(=O)/C1=C\c1cccs1` here?
Answer: inconclusive: 29.1 µM [inhibitor, single point]

Question: With `O=C(CC[C@H]1O[C@@H](n2ccc(=O)[nH]c2=O)[C@H](O)[C@@H]1O)NC1CCN(Cc2ccccc2)C1` (some centres undefined) as the molecule, how does the “activity change, negative = growth inhibition” value read?
Answer: inactive: 19%

Question: With `Cc1nc2[nH]c(=O)n(O)c(=O)c2s1` as the molecule, how does the Potency read?
Answer: inconclusive: 29.1 µM [inhibitor, single point]

Question: For `CCOC(=O)C1=C(CN2CCN(c3ccccc3OC)CC2)NC(=O)NC1c1ccccc1` (centres undefined), which Potency is on record?
Answer: inconclusive: 23.1 µM [inhibitor, single point]

Question: For `C=CCOC(=O)C1=C(C)NC(C)=C(C(=O)OCC=C)C1c1ccc(C)o1`, which Potency is on record?
Answer: inconclusive: 23.1 µM [inhibitor, single point]

Question: With `Cc1csc(NC(=O)c2cn3ccccc3n2)n1` as the molecule, how does the Potency read?
Answer: inconclusive: 18.4 µM [inhibitor, partial curve]

Question: With `O=C(CCCC(=O)N(CC(=O)NC1CCCC1)Cc1ccccc1Cl)Nc1ccccn1` as the molecule, how does the Potency read?
Answer: inconclusive: 29.1 µM [inhibitor, single point]

Question: Which Potency does the source give for `COC(=O)c1cc(NC(=O)c2cc(-c3ccc(OC)cc3)oc2C(F)(F)F)ccc1N1CCOCC1` here?
Answer: inconclusive: 20.6 µM [inhibitor, single point]

Question: With `CC(C)n1cc(CN2CCC(n3nccc3NC(=O)CCCc3ccccc3)CC2)cn1` as the molecule, how does the “activity change, negative = growth inhibition” value read?
Answer: inactive: 2%

Question: Which “activity change, negative = growth inhibition” value does the source give for `Cc1ccc(C2C(C(=O)c3cccs3)=C(O)C(=O)N2c2nnc(C)s2)cc1` (centres undefined) here?
Answer: inactive: -0.139%

Question: With `O=C1/C(=C\c2cccnc2)CCc2ccccc21` as the molecule, how does the Potency read?
Answer: active: 13 µM

Question: With `COc1ccc(CNC(=S)Nc2cc(C)cc(C)c2)cc1` as the molecule, how does the activity change, negative = growth inhibition read?
Answer: inconclusive: -32% [inhibitor]

Question: Which Potency does the source give for `Cc1cccc(C)c1-n1nnnc1-c1nc2ccccc2[nH]c1=O` here?
Answer: inconclusive: 18.4 µM [inhibitor, single point]

Question: Which Potency does the source give for `Cc1ccc(Nc2nc(C)c(CCC(C)C)c(=O)[nH]2)cc1` here?
Answer: inconclusive: 29.1 µM [inhibitor, single point]

Question: For `COc1ccccc1N1CCN(C(=O)CCCN2C(=O)c3cccc4cccc(c34)C2=O)CC1`, which Potency is on record?
Answer: active: 16.4 µM

Question: For `COc1ccc(-c2nnc(SCC(=O)NCCC(C)C)nc2-c2ccc(OC)c(OC)c2)cc1OC`, which Potency is on record?
Answer: inconclusive: 18.4 µM [inhibitor, single point] and inconclusive: 25.9 µM [inhibitor, single point]

Question: Which “activity change, negative = growth inhibition” value does the source give for `COc1ccc(-c2c(Sc3ccccc3)c3cc(-c4ccc(OC)c(F)c4)ccc3n2C)cc1` here?
Answer: inactive: 2.61%

Question: For `COCC(C)NC(=O)CCS(=O)(=O)c1nc(-c2ccc(OC)cc2)cc(C(F)(F)F)n1` (centres undefined), which Potency is on record?
Answer: active: 4.11 µM

Question: Which Potency does the source give for `O=C(/C=C/c1ccco1)Nc1ccc2c(c1)OCO2` here?
Answer: inconclusive: 29.1 µM [inhibitor, single point]

Question: For `Cc1ccc2cc(/C=N/NC(=O)c3ccccc3O)c(Cl)nc2c1`, which Potency is on record?
Answer: inconclusive: 29.1 µM [inhibitor, single point]

Question: For `COC(=O)c1cc2oc(C)cc2n1CC(=O)Nc1ccc(C(C)C)cc1`, which Potency is on record?
Answer: active: 7.31 µM
